Among all 270,000 compounds or so, about 5,800 (2.1%) were called active. This list was built around the results that the source calls inconclusive (neither active nor inactive); the mix of calls is not that of the screen. Calls come from the whole dose curve; as a rule, active = well fitted inhibition curve with a large enough effect; inconclusive = small, poorly fitted or top-dose-only effect; inactive = flat fitted curve, though single readings scatter. A potency beside an inconclusive call is a rough fit, not a confirmed value.
These molecules were tested against Microtubule-associated protein tau (Homo sapiens) (UniProt P10636) (assay: qHTS for Inhibitors of Tau Fibril Formation, Thioflavin T Binding). Settings: recombinant tau K18 P301L (four-repeat tau fragment), heparin-induced fibrillization, ThT fluorescence; series mostly up to 57.4 µM.
Outline: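 Heparin-induced fibrillization of the P301L-mutant K18 repeat-domain fragment of human tau was followed by ThT binding in quantitative high-throughput format.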
Note: nearly all actives have a fitted effect of over 55% in size.
Potency is the fitted concentration of half-maximal effect; tags give direction and shape of the fitted curve.

UniProt P10636, sequence (P10636 whole entry, looked up, the tested form may be a part): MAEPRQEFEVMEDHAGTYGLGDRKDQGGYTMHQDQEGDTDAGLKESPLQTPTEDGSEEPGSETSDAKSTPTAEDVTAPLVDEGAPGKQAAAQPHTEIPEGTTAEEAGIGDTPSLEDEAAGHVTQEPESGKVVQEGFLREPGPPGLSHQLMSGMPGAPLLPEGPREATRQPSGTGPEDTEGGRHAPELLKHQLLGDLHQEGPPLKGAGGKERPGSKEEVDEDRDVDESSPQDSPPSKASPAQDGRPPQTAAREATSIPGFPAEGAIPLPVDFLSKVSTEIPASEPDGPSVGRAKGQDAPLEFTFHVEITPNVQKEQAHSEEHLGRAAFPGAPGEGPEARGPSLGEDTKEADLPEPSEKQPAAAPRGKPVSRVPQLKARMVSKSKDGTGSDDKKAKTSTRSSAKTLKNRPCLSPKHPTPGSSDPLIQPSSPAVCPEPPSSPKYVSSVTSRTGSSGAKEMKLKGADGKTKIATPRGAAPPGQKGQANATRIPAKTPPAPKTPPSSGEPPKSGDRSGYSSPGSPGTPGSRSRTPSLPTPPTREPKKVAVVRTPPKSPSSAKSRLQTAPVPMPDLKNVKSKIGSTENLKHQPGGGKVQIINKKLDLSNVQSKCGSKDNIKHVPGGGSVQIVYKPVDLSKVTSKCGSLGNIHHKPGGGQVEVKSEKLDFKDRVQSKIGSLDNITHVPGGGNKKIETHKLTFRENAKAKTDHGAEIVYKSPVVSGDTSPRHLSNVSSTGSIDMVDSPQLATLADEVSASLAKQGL

SMILES	Potency
O=C(Cn1cnc2onc(-c3ccc(F)cc3)c2c1=O)N1CCN(c2ccc(F)cc2)CC1	inactive
CC1(OC(=O)CCc2ccccc2)C(=O)C=C2C=C(c3ccsc3)OC=C2C1=O (stereo not given)	active: 25.1 µM
CCC(C(=O)Nc1cc(C(F)(F)F)ccc1Cl)n1nc(C)c2sc3ccccc3c2c1=O (stereo not given)	inconclusive: 1.58 µM [inhibitor, full curve]
COc1ccccc1CNC(=O)Cn1nc(C)n2cccc2c1=O	inconclusive: 11.2 µM [activator, partial curve, poor fit]
Cc1cc2c(c(C)c1Cl)C(c1ccc3c(c1)OCO3)CC(=O)O2 (stereo not given)	inconclusive: 35.5 µM [inhibitor, partial curve]
COc1cccc(CNC(=O)c2sc3ncccc3c2-n2c(C)ccc2C)c1OC	inconclusive: 25.1 µM [inhibitor, single point]
CCN=c1scc(-c2cccs2)n1/N=C/c1cc(OC)ccc1O	inconclusive: 5.01 µM [inhibitor, partial curve]
O=C(Cn1nc(Cc2cccnc2)c2ccccc2c1=O)Nc1ccc(F)c(Cl)c1	inconclusive: 39.8 µM [inhibitor, single point]
COc1ccc(-c2noc(CSc3nc4ccc(C)cc4[nH]3)n2)cc1	inconclusive: 3.16 µM [inhibitor, full curve]
Cc1ccsc1/C=N/N1CCN(Cc2ccccc2)CC1	inconclusive: 44.7 µM [inhibitor, single point]
COc1ccc(NC2=CC(c3ccccc3)N(c3ccc(OC)cc3)C2=O)cc1 (stereo not given)	inconclusive: 20 µM [inhibitor, partial curve]
O=C1C(Cl)=C(Nc2ccccc2)C(=O)c2ccccc21	active: 3.16 µM
Cc1[nH]c2ccccc2c1/C=N/Nc1nc(Nc2ccccc2)nc(N2CCOCC2)n1	inconclusive: 15.8 µM [inhibitor, partial curve]
CCOC(=O)N1CCN(C(=O)CSCC(=O)Nc2nc(-c3ccc(OC)cc3)cs2)CC1	inconclusive: 11.2 µM [inhibitor, partial curve]
N#C/C(=C\c1cccs1)c1nc2ccccc2[nH]1	inconclusive: 11.2 µM [inhibitor, partial curve]
CN1CCC(Oc2ccccc2Sc2ccc(C(F)(F)F)cc2)CC1	inconclusive: 39.8 µM [inhibitor, single point]
CCCn1c(SCC(=O)N2c3ccccc3Sc3ccccc32)nc2ccccc21	inconclusive: 20 µM [inhibitor, single point]
C=CCn1cc(/C=C2\SC(N3CCOCC3)=NC2=O)c2ccccc21	inconclusive: 28.2 µM [inhibitor, partial curve]
O=C(Nc1cccc(C(=O)OCc2cc(=O)n3c4c(sc3n2)CCCC4)c1)c1cccc(F)c1	inconclusive: 0.891 µM [inhibitor, full curve]
COc1ccc(C(=O)COc2cccc(NC(=O)c3ccco3)c2)cc1	inconclusive: 0.562 µM [inhibitor, full curve, poor fit]

SMILES	Potency
Nc1ccc(-c2nc3ccc([N+](=O)[O-])cc3[nH]2)cc1	active: 12.6 µM
Cc1ccc(Cl)cc1N1CCN(C(=O)Cn2nc(C)c3sc4ccccc4c3c2=O)CC1	inconclusive: 7.94 µM [inhibitor, partial curve]
CCOc1ccccc1NC(=O)C1CCN(C(=O)c2cccs2)CC1	inactive
O=C(OCCNC(=O)c1ccc2ccccc2n1)c1ccc(F)cc1	inconclusive: 17.8 µM [inhibitor, partial curve, poor fit]
COc1ccc2c(c1)O[C@H](c1ccc3c(c1)OCO3)[C@@H](OC(=O)NCc1ccco1)C2=O	inconclusive: 17.8 µM [inhibitor, partial curve, poor fit]
O=C(Nc1ccc(N2CCOCC2)nc1)c1ccc(Cl)cc1	inconclusive: 17.8 µM [inhibitor, partial curve]
O=C(NCCO)Nc1ccc2nc(-c3ccco3)c(-c3ccco3)nc2c1	inactive
C/C=C/c1ccc(OCC(=O)OCc2csc(Nc3ccc(C)cc3)n2)c(OC)c1	inconclusive: 8.91 µM [inhibitor, partial curve]
COc1cc(/C=N/Nc2ccc(F)cc2F)cc(OC)c1OC	inconclusive: 25.1 µM [inhibitor, partial curve]
CCOC(=O)c1ccc(N2C(=O)c3[nH]nc(-c4ccc(OC)cc4)c3C2c2cccc(O)c2)cc1 (stereo not given)	inconclusive: 35.5 µM [activator, single point]
CC(=O)OC[C@H]1O[C@@H](O/N=C/C[C@@H]2C=C[C@H](OC(C)=O)[C@@H](COC(C)=O)O2)[C@H](OC(C)=O)[C@@H](OC(C)=O)[C@@H]1OC(C)=O	inconclusive: 25.1 µM [inhibitor, single point]
COc1ccccc1CNC(=O)CCn1c(=O)c2ccccc2n(CC(=O)Nc2cc(Cl)ccc2C)c1=O	inactive
Cc1nn2c(N)csc2nc1=O	inconclusive: 28.2 µM [inhibitor, single point]
Cc1ccc(O)c(C(=O)c2cnc3c(c2)COc2ccc(C)cc2-3)c1	inconclusive: 11.2 µM [inhibitor, partial curve, poor fit]
Cc1cc(C(=O)CCl)c(C)n1CCc1ccc(F)cc1	inactive
COc1ccc(NC(=O)c2ccc(-c3ccccc3Cl)o2)cc1	inconclusive: 3.16 µM [inhibitor, full curve]
c1ccc(N2CCN(c3nc(-c4cccs4)nc4ccccc34)CC2)cc1	inconclusive: 17.8 µM [inhibitor, partial curve]
O=C1CC(c2ccco2)CC2=C1C=Nc1ccccc1N2 (stereo not given)	inconclusive: 39.8 µM [inhibitor, single point]
COC(CNC(=O)C1CCN(C(=O)c2cc3oc(C)cc3n2Cc2c(F)cccc2Cl)CC1)OC	inactive
CCc1ccc(NC(=O)c2cnc3c(-c4ccccc4)c(C)nn3c2C)cc1	inconclusive: 10 µM [inhibitor, partial curve, poor fit]

Source: PubChem BioAssay AID1460 (National Center for Advancing Translational Sciences (NCATS), 2008)
